Source: PubChem BioAssay AID504832 (National Center for Advancing Translational Sciences (NCATS), 2011)
About 18,000 (5.8%) of roughly 310,000 compounds were called active. Inconclusive results, whose numbers are uncertain, are shown with a selection of clear calls. Calls come from the whole dose curve; as a rule, active = well fitted inhibition curve with a large enough effect; inconclusive = small, poorly fitted or top-dose-only effect, or another doubt; inactive = no such curve, though single readings can be large or run the other way. No potency is given beside an inconclusive call; the fits are too rough.
% is set by controls: 0 for no effect and ±100 for the full control effect; potency is the fitted concentration of half-maximal effect; tags give direction and shape of the fitted curve.

Assay: Primary qHTS for delayed death inhibitors of the malarial parasite plastid, 48 hour incubation
Conditions: P. falciparum luciferase growth in erythrocytes; series mostly up to 28.7 µM; activity change, negative = inhibition: at the top concentration
Summary of the method: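 In quantitative HTS format, infected erythrocytes bearing luciferase-reporter parasites were treated for a single generation at 37 C. Luminescence after adding detection reagent served as the growth measure.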
In the case of `O=C(O)CC(NC(=O)C1c2ccccc2Oc2ccccc21)c1ccc(OC2CCCC2)cc1` (configuration not stated), the Potency is reported as inconclusive [inhibitor, single point]. In the case of `CN(C)C(=O)Nc1ccc(Cl)c(Cl)c1`, the Potency is reported as inconclusive [inhibitor, partial curve]. In the case of `O=C(Nc1cccc(Br)c1)c1ccc(Cl)c(S(=O)(=O)N2CCOCC2)c1`, the Potency is reported as active: 6.57 µM. With `O=C(Cn1c(=O)n(CC2CS2)c2ccccc21)N1CCCCCC1` (configuration not stated) the Potency was inconclusive [inhibitor, single point]. In the case of `CCCCCCn1c(CN2CCCCC2CC)nc2c1c(=O)n(C)c(=O)n2C` (configuration not stated), the “activity change, negative = inhibition” value is reported as inactive: -0.0725%. In the case of `COc1cccc(C(=O)C[n+]2cccc3cc(OC)ccc32)c1`, the Potency is reported as active: 10.4 µM. For `Cc1c(Br)c([N+](=O)[O-])nn1CC(=O)Nc1cccc2nonc12`, the Potency was inconclusive [inhibitor, single point]. With `COC(=O)C1=C(C)N(Cc2ccccc2)C(=NCc2cc(OC)c(OC)c(OC)c2)N[C@H]1c1cccc(F)c1` the Potency was active: 10.4 µM. With `COc1ccc(C)cc1NC(=O)COC(=O)c1ccccc1SCC(=O)N1CCCC1` the Potency was inconclusive [inhibitor, partial curve]. In the case of `CCOC(=O)c1sc(NC(=O)Nc2ccccc2)cc1C`, the “activity change, negative = inhibition” value is reported as inactive: -55.3%. With `CCOc1ccc(-c2nc(CSCC(=O)NCc3ccco3)c(C)o2)cc1` the Potency was inconclusive [inhibitor, partial curve, poor fit]. With `Cc1cccc(NC(NC(=O)c2cccnc2)C(Cl)(Cl)Cl)c1` (configuration not stated) the Potency was inconclusive [inhibitor, full curve]. In the case of `COc1cccc(Cn2cc(C(=O)NCCN(C)C)nn2)c1`, the Potency is reported as inconclusive [inhibitor, single point]. For `CCN1CCN(C(=O)N2CCOCC2)CC1`, the “activity change, negative = inhibition” value was inactive: -2.7%. With `C/C(=N\Nc1cccc([N+](=O)[O-])c1)c1cc2ccccc2o1` the “activity change, negative = inhibition” value was inactive: 52.6%. For `CC(C)Sc1nc2sc3c(c2c2nnc(SCC(=O)NCc4ccco4)n12)CCCC3`, the Potency was active: 6.57 µM. For `Cc1ccccc1N1CC(C(=O)Nc2nnc(SCc3ccccn3)s2)CC1=O` (configuration not stated), the Potency was active: 13.1 µM. With `CCc1c(C)c(C#N)c2nc3ccccc3n2c1NCC1CCCO1` (configuration not stated) the Potency was active: 1.65 µM. For `O=C(N/N=C/c1sc(N2CCCCC2)nc1-c1cccs1)c1cccnc1`, the Potency was active: 3.29 µM. In the case of `O=C(Oc1ccccc1)c1cccc2cccc(C(=O)Oc3ccccc3)c12`, the Potency is reported as inconclusive [inhibitor, partial curve, poor fit]. With `CC(=O)N(/N=C1\Sc2ccccc2C1=O)c1ccccc1` the “activity change, negative = inhibition” value was inactive: 72%. In the case of `Cc1ncc([N+](=O)[O-])n1CCOC(=O)NC(Nc1ccc(F)cc1)C(Cl)(Cl)Cl` (configuration not stated), the Potency is reported as active: 8.28 µM. For `CC1CCC2CCCCC2N1C(=O)c1cc([N+](=O)[O-])cc([N+](=O)[O-])c1` (configuration not stated), the Potency was inconclusive [inhibitor, full curve, poor fit]. For `CC(C)c1ccc(OCC(=O)NC2=NCCS2)cc1`, the “activity change, negative = inhibition” value was inactive: 344%. With `COc1cccc(-c2nc(CS(=O)(=O)CC(=O)Nc3cccc(C)c3C)c(C)o2)c1` the “activity change, negative = inhibition” value was inactive: 1.43%. In the case of `O=C(CCc1nnc2ccc(NCc3ccccc3Cl)nn12)NC1CCCCC1`, the Potency is reported as inconclusive [inhibitor, partial curve, poor fit]. In the case of `CC[n+]1c(/C=C/c2ccc(OC(C)=O)c(OC)c2)ccc2ccccc21`, the Potency is reported as inconclusive [inhibitor, single point]. In the case of `CCC(=O)Oc1ccc2ccccc2c1CNC(=O)c1ccccc1`, the Potency is reported as inconclusive [inhibitor, single point]. For `O=C(NCc1ccccc1)c1ncn(Cc2ccccc2)c1C(=O)NCc1ccccc1`, the Potency was inconclusive [inhibitor, partial curve]. In the case of `Cc1ccc2c(CC(=O)NCc3ccco3)coc2c1C`, the “activity change, negative = inhibition” value is reported as inactive: -8.68%. For `COCCn1c(C)cc(/C=C2/NC(=O)N(Cc3ccc(C)cc3)C2=O)c1C`, the Potency was inconclusive [inhibitor, full curve]. With `CCCCCCCCCn1c2c(c(=N)c3c1CCC3)CCC2` the Potency was active: 0.294 µM. With `O=C(NC(=O)c1ccccc1O)c1ccc(C(F)(F)F)cc1` the Potency was inconclusive [inhibitor, partial curve]. In the case of `COc1ccccc1-n1c(-c2ccc(Cl)cc2)c[nH]c1=S`, the Potency is reported as inconclusive [inhibitor, single point]. In the case of `O=S(=O)(NCCC1=CCCCC1)c1cccc2nsnc12`, the Potency is reported as active: 3.7 µM. In the case of `Cc1ccc(-c2csc(NC(=O)CSc3nc4ccccc4c(=O)n3CCCN(C)C)n2)cc1`, the Potency is reported as inconclusive [inhibitor, single point]. With `CSCCC(NS(=O)(=O)c1cc(C(=O)O)ccc1Cl)C(=O)O` (configuration not stated) the “activity change, negative = inhibition” value was inactive: -24.1%. In the case of `CCOC(=O)c1cc(C#N)c(SCC(=O)c2cc(C#N)c(SC)nc2C)[nH]c1=O`, the Potency is reported as inconclusive [inhibitor, full curve]. For `OC1(c2cccc(C(F)(F)F)c2)CCN(c2ncnc3c2[nH]c2ccccc23)CC1`, the “activity change, negative = inhibition” value was inactive: 38.1%. For `Cc1ccc(C(=O)Nc2ccccc2C(=O)NC(C(=O)O)C(C)C)cc1` (configuration not stated), the Potency was active: 11.7 µM. For `CS(=O)(=O)Nc1ccc(C(=O)NCCSCc2c(F)cccc2Cl)cc1`, the “activity change, negative = inhibition” value was inactive: -0.261%. For `Cc1ccc(-c2cn(-c3ccccc3F)c(=S)[nH]2)cc1`, the Potency was inconclusive [inhibitor, single point]. For `CCn1ncc(Cl)c1C(=O)Nc1cc(Cl)ccc1Cl`, the “activity change, negative = inhibition” value was inactive: 12.2%. In the case of `COc1ccccc1C(CNC(=O)c1ccc(NS(=O)(=O)c2ccc(F)c(C)c2)cc1)N(C)C` (configuration not stated), the Potency is reported as inconclusive [inhibitor, partial curve]. In the case of `CC1Cc2ccccc2N1Cc1cc(=O)c(OCC(=O)Nc2ccccc2)co1` (configuration not stated), the Potency is reported as active: 9.28 µM. For `COCCCNc1nc2c(c(=O)n(Cc3cccc(Br)c3)c(=O)n2C)n1C`, the Potency was inconclusive [inhibitor, full curve, poor fit]. In the case of `COC(=O)C1=C(c2ccc(Cl)c(C(F)(F)F)c2)C[C@@H]2CC[C@H]1N2C(=O)NCCNC(C)=O`, the Potency is reported as inconclusive [inhibitor, single point].
